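Five compound concentrations were applied to cells in 96-well plates for 48 hours; endpoints were derived by simple linear interpolation of the resulting dose-response curve. GI50 marks 50% less growth. The concentration for full growth arrest is given as TGI.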
What was measured:
Experiment in all cases: inhibition of tumour cell growth, NCI panel, 48 h
CCRF-CEM leukemia = test system: CCRF-CEM leukemia
HOP-92 NSCLC = test system: HOP-92 NSCLC
NCI-H226 lung = test system: NCI-H226 lung
NCI-H23 lung = test system: NCI-H23 lung
SR leukemia = test system: SR leukemia
UACC-257 melanoma = test system: UACC-257 melanoma

Question: Which results are given for `O=C(O)c1ccc(Oc2nccc(-c3c(-c4ccc(F)cc4)ncn3C3CCNCC3)n2)cc1`?
Answer: GI50 (CCRF-CEM leukemia): > 25 µM; TGI (CCRF-CEM leukemia): > 25 µM; GI50 (HOP-92 NSCLC): > 25 µM; TGI (HOP-92 NSCLC): > 25 µM; GI50 (NCI-H226 lung): > 25 µM; TGI (NCI-H226 lung): > 25 µM; GI50 (NCI-H23 lung): > 25 µM; TGI (NCI-H23 lung): > 25 µM; GI50 (SR leukemia): > 25 µM; TGI (SR leukemia): > 25 µM; GI50 (UACC-257 melanoma): > 25 µM; TGI (UACC-257 melanoma): > 25 µM

Source: PubChem BioAssay (NCI)
